Assay results reported in article PMC9911399, “Two distinct binding modes provide the RNA-binding protein RbFox with extraordinary sequence specificity”.
Residue numbers refer to the chain shown, from its start. The list shows a part of the results.

T1: RBFOX1 RRM (Homo sapiens, UniProt Q9NWB1 109-208)
T1 sequence: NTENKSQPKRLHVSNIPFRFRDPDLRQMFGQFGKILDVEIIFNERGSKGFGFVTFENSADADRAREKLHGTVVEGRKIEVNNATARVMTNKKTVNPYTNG

B1: AUAUGAU (DNA:RNA)
RNA: GGGAGACCGGAAUUCAGAUUGUCCAUAUGAUUUAAAUCCCGUCGUAGCCACCA
DNA 1: CAATCTGAATTCCGGTCTCCC
DNA 2: TGGTGGCTACGACGGGATT
B2: GCUGCGA (DNA:RNA)
RNA: GGGAGACCGGAAUUCAGAUUGUCCGCUGCGAUUAAAUCCCGUCGUAGCCACCA
DNA 1: CAATCTGAATTCCGGTCTCCC
DNA 2: TGGTGGCTACGACGGGATT
B3: UGUCAUU (DNA:RNA)
RNA: B1 RNA with A25U, U26G, A27U, U28C, G29A, A30U
DNA 1: CAATCTGAATTCCGGTCTCCC
DNA 2: TGGTGGCTACGACGGGATT
B4: CCUGAAG (DNA:RNA)
RNA: B2 RNA with G25C, C29A, G30A, A31G
DNA 1: CAATCTGAATTCCGGTCTCCC
DNA 2: TGGTGGCTACGACGGGATT
B5: AAGGCCC (DNA:RNA)
RNA: B2 RNA with G25A, C26A, U27G, G30C, A31C
DNA 1: CAATCTGAATTCCGGTCTCCC
DNA 2: TGGTGGCTACGACGGGATT
B6: ACCCUGC (DNA:RNA)
RNA: B2 RNA with G25A, U27C, G28C, C29U, A31C
DNA 1: CAATCTGAATTCCGGTCTCCC
DNA 2: TGGTGGCTACGACGGGATT
B7: UCAGGAA (DNA:RNA)
RNA: B1 RNA with A25U, U26C, U28G, U31A
DNA 1: CAATCTGAATTCCGGTCTCCC
DNA 2: TGGTGGCTACGACGGGATT
B8: GGCAGCC (DNA:RNA)
RNA: B1 RNA with A25G, U26G, A27C, U28A, A30C, U31C
DNA 1: CAATCTGAATTCCGGTCTCCC
DNA 2: TGGTGGCTACGACGGGATT
B9: GCUAGGC (DNA:RNA)
RNA: B2 RNA with G28A, C29G, A31C
DNA 1: CAATCTGAATTCCGGTCTCCC
DNA 2: TGGTGGCTACGACGGGATT
B10: UGUAUCG (DNA:RNA)
RNA: B2 RNA with G25U, C26G, G28A, C29U, G30C, A31G
DNA 1: CAATCTGAATTCCGGTCTCCC
DNA 2: TGGTGGCTACGACGGGATT
B11: UGAAGGC (DNA:RNA)
RNA: B1 RNA with A25U, U26G, U28A, A30G, U31C
DNA 1: CAATCTGAATTCCGGTCTCCC
DNA 2: TGGTGGCTACGACGGGATT
B12: UCGUAUU (DNA:RNA)
RNA: B1 RNA with A25U, U26C, A27G, G29A, A30U
DNA 1: CAATCTGAATTCCGGTCTCCC
DNA 2: TGGTGGCTACGACGGGATT
B13: ACAUUUU (DNA:RNA)
RNA: B1 RNA with U26C, G29U, A30U
DNA 1: CAATCTGAATTCCGGTCTCCC
DNA 2: TGGTGGCTACGACGGGATT
B14: CGAGCUA (DNA:RNA)
RNA: B2 RNA with G25C, C26G, U27A, G30U
DNA 1: CAATCTGAATTCCGGTCTCCC
DNA 2: TGGTGGCTACGACGGGATT
B15: UCGCUGA (DNA:RNA)
RNA: B2 RNA with G25U, U27G, G28C, C29U
DNA 1: CAATCTGAATTCCGGTCTCCC
DNA 2: TGGTGGCTACGACGGGATT
B16: AGUACCU (DNA:RNA)
RNA: B1 RNA with U26G, A27U, U28A, G29C, A30C
DNA 1: CAATCTGAATTCCGGTCTCCC
DNA 2: TGGTGGCTACGACGGGATT
B17: AGGGACC (DNA:RNA)
RNA: B1 RNA with U26G, A27G, U28G, G29A, A30C, U31C
DNA 1: CAATCTGAATTCCGGTCTCCC
DNA 2: TGGTGGCTACGACGGGATT
B18: UUUGCUC (DNA:RNA)
RNA: B2 RNA with G25U, C26U, G30U, A31C
DNA 1: CAATCTGAATTCCGGTCTCCC
DNA 2: TGGTGGCTACGACGGGATT
B19: UAGACGG (DNA:RNA)
RNA: B2 RNA with G25U, C26A, U27G, G28A, A31G
DNA 1: CAATCTGAATTCCGGTCTCCC
DNA 2: TGGTGGCTACGACGGGATT
B20: GUUCGCU (DNA:RNA)
RNA: B1 RNA with A25G, A27U, U28C, A30C
DNA 1: CAATCTGAATTCCGGTCTCCC
DNA 2: TGGTGGCTACGACGGGATT
B21: CGAAGAC (DNA:RNA)
RNA: B1 RNA with A25C, U26G, U28A, U31C
DNA 1: CAATCTGAATTCCGGTCTCCC
DNA 2: TGGTGGCTACGACGGGATT
B22: UGUCACU (DNA:RNA)
RNA: B1 RNA with A25U, U26G, A27U, U28C, G29A, A30C
DNA 1: CAATCTGAATTCCGGTCTCCC
DNA 2: TGGTGGCTACGACGGGATT
B23: AAUCAGC (DNA:RNA)
RNA: B2 RNA with G25A, C26A, G28C, C29A, A31C
DNA 1: CAATCTGAATTCCGGTCTCCC
DNA 2: TGGTGGCTACGACGGGATT
B24: CACACGA (DNA:RNA)
RNA: B2 RNA with G25C, C26A, U27C, G28A
DNA 1: CAATCTGAATTCCGGTCTCCC
DNA 2: TGGTGGCTACGACGGGATT
B25: AAGUCGU (DNA:RNA)
RNA: B1 RNA with U26A, A27G, G29C, A30G
DNA 1: CAATCTGAATTCCGGTCTCCC
DNA 2: TGGTGGCTACGACGGGATT
B26: GAGCCUA (DNA:RNA)
RNA: B2 RNA with C26A, U27G, G28C, G30U
DNA 1: CAATCTGAATTCCGGTCTCCC
DNA 2: TGGTGGCTACGACGGGATT
B27: GACAUAA (DNA:RNA)
RNA: B2 RNA with C26A, U27C, G28A, C29U, G30A
DNA 1: CAATCTGAATTCCGGTCTCCC
DNA 2: TGGTGGCTACGACGGGATT
B28: ACGUGGA (DNA:RNA)
RNA: B1 RNA with U26C, A27G, A30G, U31A
DNA 1: CAATCTGAATTCCGGTCTCCC
DNA 2: TGGTGGCTACGACGGGATT
B29: GGCGGUA (DNA:RNA)
RNA: B2 RNA with C26G, U27C, C29G, G30U
DNA 1: CAATCTGAATTCCGGTCTCCC
DNA 2: TGGTGGCTACGACGGGATT
B30: UGUCAAG (DNA:RNA)
RNA: B1 RNA with A25U, U26G, A27U, U28C, G29A, U31G
DNA 1: CAATCTGAATTCCGGTCTCCC
DNA 2: TGGTGGCTACGACGGGATT
B31: UACUUGU (DNA:RNA)
RNA: B1 RNA with A25U, U26A, A27C, G29U, A30G
DNA 1: CAATCTGAATTCCGGTCTCCC
DNA 2: TGGTGGCTACGACGGGATT

target: T1, RBFOX1 RRM; assay: EMSA; HiTS-Eq, 1 nM pool, 10 min; buffer printed only for the single-RNA assays: 10 mM Tris pH 7.5, 150 mM NaCl, 3.4 mM EDTA, 0.001% NP-40, 30 C; details: tags: His6 N-terminal (pET28a); label: 5' 32P
How it was run: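 Purified wild-type or mutant RbFox RRM at increasing concentrations was equilibrated with 1 nM of 5′-radiolabelled RNA carrying 7 randomized nucleotides for 10 min in 50 µL. Unbound RNA was separated by 8% native PAGE and sequenced. Relative association constants came from read-count changes of each RNA species compared with the control reaction, normalised to the cognate motif.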

Row | Binder | binding signal
1 | B1 | 0.00946 KA relative to UGCAUGU
2 | B2 | 0.0191 KA relative to UGCAUGU
3 | B3 | 0.0124 KA relative to UGCAUGU
4 | B4 | 0.0147 KA relative to UGCAUGU
5 | B5 | 0.00819 KA relative to UGCAUGU
6 | B6 | 0.00869 KA relative to UGCAUGU
7 | B7 | 0.00853 KA relative to UGCAUGU
8 | B8 | 0.00719 KA relative to UGCAUGU
9 | B9 | 0.0131 KA relative to UGCAUGU
10 | B10 | 0.0133 KA relative to UGCAUGU
11 | B11 | 0.0192 KA relative to UGCAUGU
12 | B12 | 0.00649 KA relative to UGCAUGU
13 | B13 | 0.00232 KA relative to UGCAUGU
14 | B14 | 0.00585 KA relative to UGCAUGU
15 | B15 | 0.0148 KA relative to UGCAUGU
16 | B16 | 0.00268 KA relative to UGCAUGU

Row | Binder | binding signal
17 | B17 | 0.0155 KA relative to UGCAUGU
18 | B18 | 0.03 KA relative to UGCAUGU
19 | B19 | 0.00945 KA relative to UGCAUGU
20 | B20 | 0.0193 KA relative to UGCAUGU
21 | B21 | 0.00991 KA relative to UGCAUGU
22 | B22 | 0.0131 KA relative to UGCAUGU
23 | B23 | 0.00434 KA relative to UGCAUGU
24 | B24 | 0.00123 KA relative to UGCAUGU
25 | B25 | 0.00628 KA relative to UGCAUGU
26 | B26 | 0.00398 KA relative to UGCAUGU
27 | B27 | 0.00169 KA relative to UGCAUGU
28 | B28 | 0.00677 KA relative to UGCAUGU
29 | B29 | 0.0148 KA relative to UGCAUGU
30 | B30 | 0.0144 KA relative to UGCAUGU
31 | B31 | 0.0167 KA relative to UGCAUGU
